# Results from PubChem BioAssay AID1745853 (National Center for Advancing Translational Sciences (NCATS), 2022).
# Values joined by “and” are separate entries in the source; they are usually repeats but may differ in a detail not shown here. Equal entries are not always repeated. This is one part of the list. The main result of the screen is listed elsewhere. These columns were measured beside it and carry no call.
# Experiments:
# Test in all cases: Primary Screen for Target Class Profiling of Small Molecule Inhibitors of Methyltransferases
# [1] = target: Glycine N-methyltransferase (Homo sapiens) (UniProt Q14749); conditions: purified enzyme, MTase-Glo SAH luminescence; measured here: GNMT inhibition; at 40 µM; stronger effect = lower value
# Summary of the method: (§1)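 Each enzyme was reacted with SAM and its substrate, with compounds tested once at 40 uM; SAH formed was read by MTase-Glo luminescence.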
# [2] = target: Guanidinoacetate N-methyltransferase (Homo sapiens) (UniProt Q14353); conditions: purified enzyme, MTase-Glo SAH luminescence; measured here: GAMT inhibition; at 40 µM; stronger effect = lower value
# Summary of the method: as §1
# [3] = target: Histamine N-methyltransferase (Homo sapiens) (UniProt P50135); conditions: purified enzyme, MTase-Glo SAH luminescence; measured here: HNMT inhibition; at 40 µM; stronger effect = lower value
# Summary of the method: as §1
# [4] = target: Nicotinamide N-methyltransferase (Homo sapiens) (UniProt P40261); conditions: purified enzyme, MTase-Glo SAH luminescence; measured here: NNMT inhibition; at 40 µM; stronger effect = lower value
# Summary of the method: as §1
# [5] = target: Phenylethanolamine N-methyltransferase (Homo sapiens) (UniProt P11086); conditions: purified enzyme, MTase-Glo SAH luminescence; measured here: PNMT inhibition; at 40 µM; stronger effect = lower value
# Summary of the method: as §1
# On the % scale 0 is the no-effect control and ±100 the full control effect.
Structure (SMILES),"activity change, negative = inhibition [1]","activity change, negative = inhibition [2]","activity change, negative = inhibition [3]","activity change, negative = inhibition [4]","activity change, negative = inhibition [5]"
CC1(C(=O)NC2CCCC2)Cn2c(c(-n3cccc3)c3ccccc32)C(=O)N1Cc1ccco1 (stereo not given),3.91%,0%,-2.31%,-5.06%,1.77%
CC(C)C1c2cccn2CCN1C(=O)Nc1ccc(Br)cc1F (stereo not given),1.1%,6.15%,-8.26%,-5.72%,-0.371%
CC(C)C1C(OC(=O)/C=C/c2ccccc2)CC2(C)OC2CCC2(C)OC2C1O (stereo not given),0%,4.07%,3.85%,-10.4%,3.25%
C=C(C(=O)OC)C1CCC2(C)C(O[C@@H]3O[C@H](CO)[C@@H](O)[C@H](O)[C@H]3O)CC(=O)C(C)C2C1O (stereo not given in full),0%,4.93%,9.92%,-6.29%,-0.782%
C=CCc1ccc(O[C@@H]2O[C@H](CO)[C@@H](O)[C@H](O)[C@H]2O)c(OC)c1,5.26%,3.79%,13%,-6.62%,5.96%
CS(=O)(=O)NC1CCN(c2cc(C3CC(N)C3)nc(N)n2)CC1 (stereo not given),-5.9%,-7.45%,-6.79%,-10.4%,-16.4%
C=CCc1cccc(C=NNC(=O)CN2CCN(Cc3ccccc3)CC2)c1O,-1.88%,3.77%,-10.7%,-12.9%,-2.44%
CN(CC(=O)N1CCOCC1)S(=O)(=O)c1ccc2c(c1)CCCC(=O)N2,9.52%,0.728%,9.61%,11.1%,9.44%
Cn1ccc2cc3c(cc21)CCN3C(=O)Nc1cccnc1,-52.6%,-2.72%,-7.28%,-17.6%,-23.1%
COC(=O)c1cc2n(n1)CC(C)(C(=O)NC1CCCCC1)N(c1cccc(SC)c1)C2=O (stereo not given),-0.414%,8.49%,0.991%,0.266%,0.743%
Cc1ccc(Cn2c(=O)c3ccccc3n3c(CCC(=O)NCCc4ccccc4)nnc23)cc1,-13.1%,5.08%,1.59%,-15.8%,-3.11%
CC1(C)CC2C(C1)C1(C)CCC13OC3(CO)C2O (stereo not given),4.65%,0.476%,9.83%,-13%,3.38%
C[C@@H]1O[C@@H](OC[C@H]2O[C@@H](OCc3ccccc3)[C@H](O)[C@@H](O)[C@@H]2O)[C@H](O)[C@H](O)[C@H]1O,1.53%,-3.43%,7.6%,-12.5%,-1.27%
O=C(O)CP(=O)(O)O,2.58%,6.73%,2.61%,-7.38%,-2.76%
COc1ccccc1CCC(=O)N1CC(F)(F)C[C@H]1c1nnc(C)o1,-2.62%,-0.082%,1.48%,-8.39%,-11.2%
Cc1noc(-c2cccn3c(CNC(=O)c4ccccc4C)nnc23)n1,-3.32%,1.9%,1.27%,2.67%,2.37%
CCCCN1C(=O)c2ccccc2C(C(=O)Nc2nncs2)C12CCCC2 (stereo not given),-2.99%,-2.54%,-8.9%,-10.6%,-5.5%
O=C(Nc1ccc(F)cc1)N[C@H]1[C@H](O)[C@@H](N2CCCC2)[C@@H]2OC[C@H]1O2,-0.976%,1.64%,1.52%,-4.72%,7.5%
Cc1ccccc1CSc1nnc2n(CCC(C)C)c(=O)c3ccccc3n12,-5.81%,3.98%,1.71%,-13.1%,-3.17%
CC1CCCC(NC(=O)Cn2c(=O)oc3cc(S(=O)(=O)N4CCCC4)ccc32)C1C (stereo not given),-6.04%,0.665%,-4.09%,-0.46%,-10.6%

Structure (SMILES),"activity change, negative = inhibition [1]","activity change, negative = inhibition [2]","activity change, negative = inhibition [3]","activity change, negative = inhibition [4]","activity change, negative = inhibition [5]"
Cc1cccc(CCNC(=O)Cn2c(=O)oc3cc(S(=O)(=O)NCc4ccccc4)ccc32)c1,3.93%,0%,0.365%,-5.91%,3.21%
Cc1nc(CN2C(=O)OC3(CCN(C(=O)Cc4ccc(O)cc4)CC3)C2(C)c2ccccc2)cs1 (stereo not given),-5.34%,-6.47%,-6.67%,-4.3%,-2.39%
Cc1ccc(C(=O)N2CCCC(n3c(C)cnc3C3CCOCC3)C2)s1 (stereo not given),-3.71%,-8.26%,-4.89%,-10.4%,-2.37%
Cc1cnc(-c2ccncc2)n1C1CCN(S(=O)(=O)c2cccc(F)c2)CC1,-4.12% and -8.6%,-4.23% and 3.81%,-0.942% and -8.15%,-8.86% and -9.18%,-19.6% and -3.95%
Cc1noc(C)c1[S+](=O)([O-])N1CC(Oc2ccc(F)cc2F)C1,-6.95%,-2.97%,-2.99%,-8.67%,-1.12%
Cc1ccc(Cn2c(=O)c3ccccc3n3c(SCC(=O)Nc4ccc(C)cc4C)nnc23)cc1,2.4%,0%,9.75%,1.99%,2.88%
COc1ccc(NC(=O)CCc2nnc3n(CCCOC(C)C)c(=O)c4ccccc4n23)cc1,-3.22%,-5.52%,-5.47%,-0.295%,-12.7%
COc1cc(N2CCC(O)CC2)ccc1Nc1nc(Nc2ccccc2S(=O)(=O)C(C)C)c2[nH]cnc2n1,-22.3%,4.97%,-44.9%,-15.6%,-1.6%
Cc1ccc2c(c1)c(-n1cccc1)c1n2CC(C)(C(=O)NC2CCCC2)N(Cc2ccccn2)C1=O (stereo not given),-7.29%,-0.866%,-4.63%,-20.5%,-4.35%
CCCOc1ccc(S(=O)(=O)N2CCN(CCO)CC2)cc1-c1nc2c(CCC)cn(CC)c2c(=O)[nH]1,-6.88%,12.6%,6.03%,-20.9%,6.21%
O=C(CC1CCN(C(=O)Cc2ccccc2F)C1)NC1CC1 (stereo not given),-0.079%,2.2%,1.19%,-2.6%,-3.23%
COc1ccc(C(=O)N(Cc2ccccc2)S(=O)(=O)c2ccc3c(c2)n(C)c(=O)n3C)cc1,0.162%,3.44%,5.87%,-11%,-0.207%
Cc1ccc(NC(=O)Cn2nc3n(Cc4ccc(F)cc4)c(=O)c4ccccc4n3c2=O)cc1C,-2.72%,1.67%,-1%,-1.31%,-3.65%
COc1cccc(CN2C(=O)c3nc4ccccc4n3CC2(C)C(=O)NC2CCC(C)CC2)c1OC (stereo not given),3.09%,0.049%,6.34%,2.08%,1.77%
C=CC(=O)Nc1cccc(Nc2nc(Nc3ccc(OCCOC)cc3)ncc2F)c1,-55.8%,-24%,-50%,-64.9%,-31.1%
COc1ccc(S(=O)(=O)N2C[C@@H]3C[C@H](C2)c2ccc(NC(=O)c4ccc(C#N)cc4)c(=O)n2C3)cc1,0.061%,0.029%,1.28%,-4.17%,7.16%
CCOc1ccccc1CN1C(=O)c2ccc(-c3ccco3)n2CC1(C)C(=O)NC1CCCCC1C (stereo not given),-9.04%,6.28%,-6.54%,-10.9%,-2.8%
CC(C)CNC(=O)c1ccc2c(=O)n(CC(C)C)c3nn(CC(=O)Nc4ccc(F)cc4)c(=O)n3c2c1,8.76%,0%,13.1%,8.81%,9.06%
COc1ccc(N2C(=O)c3cc(C(C)C)nn3CC2(C)C(=O)NC2CCCCCC2)cc1 (stereo not given),3.99%,0.684%,7%,10.8%,3.34%
CCOC(=O)c1cc2n(n1)CC(C)(C(=O)NC1CCCCC1)N(Cc1ccccc1Cl)C2=O (stereo not given),0.612%,0%,-0.962%,-2.78%,-0.768%

Structure (SMILES),"activity change, negative = inhibition [1]","activity change, negative = inhibition [2]","activity change, negative = inhibition [3]","activity change, negative = inhibition [4]","activity change, negative = inhibition [5]"
CC1(C(=O)NC2CCCC2)Cn2c(ccc2-c2ccco2)C(=O)N1Cc1cccs1 (stereo not given),-13.4%,2.04%,-5.12%,-4.51%,-5.42%
CCC(=O)Nc1cccc(Oc2nc(Nc3ccc(N4CCN(C)CC4)cc3OC)ncc2Cl)c1,-5.05%,9.4%,-8.51%,-6.72%,-2.31%
CCCCc1ccc(NS(=O)(=O)c2ccc(F)cc2)cc1,1.97%,2.73%,4.83%,-20.5%,-8.6%
COc1ccccc1CNC(=O)C1(C)Cn2nc(-c3ccccc3)cc2C(=O)N1c1ccc(C)cc1 (stereo not given),-2.38%,4.43%,1.67%,-3.24%,-1.22%
COc1ccc(C(=O)N(CCC(C)C)Cc2nc(C)c(C)n2Cc2ccccc2C)c(OC)c1,-2.23%,-2.46%,-0.795%,-81.3%,-11.1%
CC(=O)N1CCN([C@H]2CCN(C(=O)N(C)[C@H](C)c3cc(C(F)(F)F)cc(C(F)(F)F)c3)[C@@H](c3ccc(F)cc3C)C2)CC1,-1.22%,16.5%,12.8%,-7.84%,8.3%
CC1(C(=O)NC2CCCCCC2)Cc2ccccc2C(=O)N1C1CCCC1 (stereo not given),-6.11%,3.69%,3.02%,3.56%,-3.74%
CC(=O)OCC1OC(O[C@H]2CC[C@]34C[C@]35CC(O)[C@]3(C)[C@@H]([C@H](C)CC/C=C(\C)C(=O)O)C(O)C[C@@]3(C)C5CC[C@H]4C2(C)C)C(O)C(O)C1OC1OCC(O)C(O)C1O (stereo not given in full),0.603%,-8.23%,3.33%,-17.5%,0.564%
COc1ccc(-c2cnc3ccc(NCc4ccc(S(N)(=O)=O)cc4)nn23)cc1OC,-50.6%,-20.9%,-54.4%,-32.8%,-30.3%
COc1ccc(CCNc2ncnc3c2CN(C2CCC2)C(=O)N(C)C3)cc1,-4.31%,-1.35%,-1.36%,-13.6%,-0.156%
COc1ccc(CNC(=O)C2(C)Cn3cnc(C(=O)NCCc4ccco4)c3C(=O)N2C2CC2)cc1 (stereo not given),-3.01%,0%,4.01%,-1.41%,0.326%
CCN1CCN(C(=O)c2cc3n(n2)CC(C)(C(=O)NC2CCCCC2)N(C)C3=O)CC1 (stereo not given),2.32%,1.12%,8.32%,3.4%,2.64%
Cc1cc(F)ccc1NS(=O)(=O)c1ccc2c(c1)n(C)c(=O)n2C,12.1%,0%,10.2%,-0.617%,2.49%
COc1ccc(CC(=O)N2CCc3nc(-c4cccnc4)[nH]c3C2)cc1,-7.91%,-5.47%,-11.3%,-12.9%,-11.2%
CCOc1ccc(CCN2C(=O)c3cc4ccccc4n3CC2(C)C(=O)NCc2ccccc2)cc1 (stereo not given),5.01%,0%,7.94%,11.9%,2.18%
Cc1ccc(NS(=O)(=O)c2ccc3[nH]c(=O)[nH]c3c2)cc1Cl,9.03%,1.25%,9.08%,-3.62%,-22.3%
C[C@@H]1CC[C@]2(C(=O)O[C@@H]3O[C@H](CO)[C@@H](O)[C@H](O)[C@H]3O)CC[C@]3(C)C(=CCC4[C@@]5(C)C[C@@H](O)[C@H](O)C(C)(C)C5CC[C@]43C)C2[C@]1(C)O (stereo not given in full),0.222%,7.42%,12.8%,-4%,8.24%
C[C@@]12CO[C@@H](CNS(C)(=O)=O)O[C@@H]1CC[C@]1(C)[C@@H]2CC[C@@H](O)[C@H]1CC(=O)NCc1ccco1,-4.91%,-0.605%,1.42%,-6.57%,0.974%
